For experiment [1], the target named is T1, Human IGF-2 (Homo sapiens, UniProt P01344).
T1 construct: insulin-like growth factor-2 (IGF-2; a 67 amino-acid polypeptide)
As to the kind of experiment: direct immunosorbent assay (ELISA) binding titration. The note with it: FIG. 1D. As for the experimental part:
(§1) Fully human IgG1 antibodies that bound with high affinity to IGF-1 are also tested for binding to human IGF-1 in direct immunosorbent assays (ELISA). Assays are performed by coating human IGF-1 (R&D Systems, No. 291-G1) to 96-well Maxisorb plates at a concentration of 0.5 μg/ml overnight at 4° C. (100 μl/well). Coating buffer alone is used as a control for unspecific binding. Wells are then washed once with washing buffer (1×TBS-T) and residual binding sites are blocked with 200 μl blocking buffer for 1 hour at room temperature on an orbital shaker followed by a further wash cycle. Serial three-fold dilutions of each test antibody in blocking buffer are prepared directly on the coated plates. Typical concentrations used are 50, 16.6, 5.6, 1.8, 0.6, 0.2, and 0.07 ng/ml. Blocking buffer alone is used as a positive control. The plates are then incubated for 2 hours at room temperature with agitation. After three wash cycles 100 μl/well of HRPO-conjugated anti-human IgG secondary reagent (Jackson ImmunoResearch Inc.) diluted in blocking buffer is added to all wells. After 2 hours incubation at room temperature with agitation the plates are washed three-times and 100 μl/well of TMB substrate solution (equal amounts of solution A and B) are pipetted into all wells. The plates are incubated for 10-20 min at RT with agitation and then the reaction is stopped by addition of 100 μl/well 1 M phosphoric acid. The absorbance is measured at a wavelength of 450 nm (reference 650 nm).
(§2) Binding of the fully human IGF-1 binding IgG1 antibodies to mouse IGF-1 (R&D Systems, No. 791-MG), rat IGF-1 (IBT, No. RU100), human IGF-2 (GroPep, No. FM001), mouse IGF-2 (R&D Systems, No. 792-MG), rat IGF-2 (IBT, No. AAU100), and human insulin (Roche) is also tested as described above for human IGF-1 (except that the concentration of human insulin used for coating is 3 μg/ml).
On the technique in general: ELISA stands for enzyme-linked immunosorbent assay.

The target of experiment [2] is T2, Mouse IGF-1 (Mus musculus, UniProt P05017).
T2 construct: Insulin-like growth factor-1 (IGF-1; a 70 amino-acid polypeptide); purchased R&D Systems 791-MG
The experiment is described as above. The note with it: FIG. 1B. As for the experimental part: as §1, §2

The target of experiment [3] is T3, Mouse IGF-2 (Mus musculus, UniProt P09535).
T3 construct: insulin-like growth factor-2 (IGF-2; a 67 amino-acid polypeptide)
The description is as above. Particulars: murine IGF-2; FIG. 1E. As for the experimental part: as §1, §2

Experiment [4] concerns the target T4, Rat IGF-1 (Rattus norvegicus, UniProt P08025).
T4 construct: Insulin-like growth factor-1 (IGF-1; a 70 amino-acid polypeptide)
The description is as above. Particulars: FIG. 1C. As for the experimental part:
as §1, §2

Experiment [5] addresses T5, Rat IGF-2 (Rattus norvegicus, UniProt P01346).
T5 construct: insulin-like growth factor-2 (IGF-2; a 67 amino-acid polypeptide)
The description is as above. The note with it: FIG. 1F. As for the experimental part: as §1, §2

Experiment [6] deals with T6, human insulin (Homo sapiens, UniProt P01308).
T6 construct: purchased Roche
Described as above. The note with it: highest concentration tested, 50 ng/ml; FIG. 1G. As for the experimental part:
as §1, §2

For experiment [7], the system named is TC-71 cells. As to the kind of experiment: Ewing's sarcoma-derived cell line growth assay. The experiment is classed as cell-based. The note with it: medium containing 10% FCS; relative to humanized IgG1 isotype control; FIG. 5. As to the method:
(§3) The typical concentrations used are 30, 10, 3.3, 1.1, 0.37, and 0.12 μg/ml (or 100, 10, 1, 0.1, 0.01, 0.001 nM rapamycin and test antibody for combination studies) and each dilution is performed in triplicate wells. The cells plus antibody are then incubated for 120 hours after which time the relative cell number in each well is determined using the CellTiter-Glo luminescent cell viability assay (Promega). Luminescence (LU=Luminescence Units) is recorded using a XFluor GENios Pro 4 and for data analysis the mean value from triplicate wells is taken and fitted by iterative calculations using a sigmoidal curve analysis program (Graph Pad Prism) with variable Hill slope.

Experiment [8] has as its system SK-ES-1 cells. Nature of the experiment: Ewing's sarcoma-derived cell line growth assay, combination with rapamycin. The experiment is classed as cell-based. The note with it: 100 nM (each agent), FIG. 8. As to the method: as §3
Experiment [9] deals with phosphorylation of AKT. Nature of the experiment: Western blot analysis of phosphorylated AKT in SK-ES-1 cells. The experiment is classed as cell-based. Particulars: 24 hours, 100 nM doses, FIG. 9. As to the method:
(§4) 24 hours later the cells are lysed and the cell lysate frozen after the protein concentration is determined by Bradford assay. Western blotting is performed by applying 30 μg of protein lysates to an SDS PAGE gel (BioRad) and the gel blotted on a Citerian gel blotting sandwich. Western blots are incubated overnight with a rabbit anti-beta actin (control) antibody, a rabbit anti-PTEN antibody (Cell Signaling #9559), or a rabbit anti-phospho-pAKT antibody (Cell Signaling #4060), at 1:5000 (anti-beta actin), 1:1000 (anti-PTEN), or 1:2000 (anti-phosphoAKT) dilutions in 1% milk powder. Following washing in TBS an anti-rabbit IgG HRPO-conjugated secondary antibody (Amersham) is applied for 1 hour and after further washes in TB S antibody reactivity is detected by ECL and captured on Hyperfilm (Amersham).
On the technique in general: A western blot detects proteins with antibodies after separation by electrophoresis.

In experiment [10] the test system is PTEN. Nature of the experiment: Western blot analysis of PTEN levels in SK-ES-1 cells. It is filed as cell-based. Particulars: 24 hours, 100 nM doses, FIG. 9. As to the method: as §4
Experiment [11] relates to NSCLC-derived cell line A-549. As to the kind of experiment: in vitro combination of anti-IGF antibody with EGFR inhibitor, proliferation. It is filed as cell-based. Particulars: 10% FCS containing growth medium; FIG. 10.
Experiment [12] has as its system total serum IGF-1. As to the kind of experiment: effect on total murine serum IGF-1 levels. The experiment is classed as in vivo, athymic NMRI nude mice. The note with it: mice; 24 hours post single i.v. doses of 25, 12.5, 6.25, 3.13 mg/kg; FIG. 6. As for the experimental part: (§5) Single intravenous (bolus) administrations of 25, 12.5, 6.25, and 3.13 mg/kg of test IGF antibody are given to female athymic NMRI nude mice, 6-8 weeks old (n=5). Single 10 minute intravenous administrations of 30, 100, 200 mg/kg of antibody 60819 are given to male and female Wistar Han rats, 6-8 weeks old (n=4 male, 4 female). Prior to antibody treatment and 24 hours post administration a blood sample is taken, serum collected, and total murine or rat IGF-1 levels determined using the OCTEIA rat/mouse total IGF-1 immunocytometric assay. The assay is performed according to the manufacturer's instructions, absorbance is measured at 450 nm and evaluated using the SoftMax Pro software. A standard curve is used to determine the serum concentration of total IGF-1 in ng/ml. Statistical analysis is performed using the GraphPad Prism software.

In experiment [13] the test system is total serum IGF-1. As to the kind of experiment: effect on total rat IGF-1 levels. The experiment is classed as in vivo, Wistar Han rats. Particulars: rats; 24 hours post single 10 minute i.v. infusion of 30, 100, 200 mg/kg; FIG. 7. As for the experimental part: as §5

T1 sequence (P01344 25-91 limits assumed): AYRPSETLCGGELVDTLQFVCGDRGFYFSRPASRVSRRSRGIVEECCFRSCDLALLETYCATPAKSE
T4 sequence (P08025 49-118 limits assumed): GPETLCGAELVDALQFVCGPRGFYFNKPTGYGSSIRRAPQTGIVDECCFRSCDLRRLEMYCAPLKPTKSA
T2 sequence (P05017 49-118 limits assumed): as the sequence (P08025 49-118 limits assumed) above, with S69A counted along it
T3 sequence (P09535 25-91 limits assumed): as the sequence (P01344 25-91 limits assumed) above, with R3G, S5G, G22S, A32S, V35A, S36N counted along it
T6 sequence (P01308 25-54 limits assumed): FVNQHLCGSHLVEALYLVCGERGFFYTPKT
T6 sequence (P01308 90-110 limits assumed): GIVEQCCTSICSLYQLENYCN
T5 sequence (P01346 25-91 limits assumed): as the sequence (P01344 25-91 limits assumed) above, with G22S, A32S, V35A, S36N counted along it

B1: 60814: fully human IgG1/Igλ anti-IGF antibody; heavy chain SEQ ID NO:35, light chain SEQ ID NO:36 (antibody, listed as Homo sapiens)
heavy: QVELVESGGGLVQPGGSLRLSCAASGFTFSNYWMHWVRQAPGKGLEWVSGISGWSSWTYYADSVKGRFTISRDNSKNTLYLQMNSLRAEDTAVYYCARFGIDAYTKVYFDYWGQGTLVTVSS[human IgG1 constant region left out here]
light: DIELTQPPSVSVAPGQTARISCSGDNIPLKYVSWYQQKPGQAPVLVIHDDNKRPSGIPERFSGSNSGNTATLTISGTQAEDEADYYCSSWDTLDIFNVFGGGTKLTVLGQPKAAPSVTLFPPSSEELQANKATLVCLISDFYPGAVTVAWKGDSSPVKAGVETTTPSKQSNNKYAASSYLSLTPEQWKSHRSYSCQVTHEGSTVEKTVAPTECS
In the case of B1, the ELISA binding result in experiment [1], in experiment [2], in [3], in experiment [4] and in [5] was “comparable cross-reactive binding” each time. The “ELISA reactivity to human insulin” value in experiment [6] is listed as “no reactivity”.

B2: 60819: fully human IgG1/Igλ anti-IGF antibody; heavy chain SEQ ID NO:37, light chain SEQ ID NO:38 (antibody, listed as Homo sapiens)
heavy: QVELVESGGGLVQPGGSLRLSCAASGFTFSNYWMHWVRQAPGKGLEWVSGISGWSSWTYYADSVKGRFTISRDNSKNTLYLQMNSLRAEDTAVYYCARFGIDAYTKVYFDYWGQGTLVTVSS[human IgG1 constant region left out here]
light: DIELTQPPSVSVAPGQTARISCSGDNIPLKYVSWYQQKPGQAPVLVIHDDNKRPSGIPERFSGSNSGNTATLTISGTQAEDEADYYCQSYDYFPKFVVFGGGTKLTVLGQPKAAPSVTLFPPSSEELQANKATLVCLISDFYPGAVTVAWKGDSSPVKAGVETTTPSKQSNNKYAASSYLSLTPEQWKSHRSYSCQVTHEGSTVEKTVAPTECS
Consider B2, for which the ELISA binding entry in experiment [1], in experiment [2], in experiment [3], in [4] and in experiment [5] was “comparable cross-reactive binding” in each case. In addition, the “ELISA reactivity to human insulin” value in experiment [6] is listed as “no reactivity”. Also, the “effect on TC-71 cell proliferation” value in experiment [7] is recorded as “dose-dependent inhibition”. Besides, the proliferation inhibition result in experiment [8] is recorded as “around 60%”. Moreover, the “phosphorylation of AKT” value in experiment [9] was “inhibited AKT phosphorylation”. Further, the “total levels of PTEN” value in experiment [10] is on record as “do not affect”. For the same molecule, in experiment [11], the “effect on A-549 cell proliferation” value is “only a small effect”. The “serum total murine IGF-1 levels” value in [12] is “dose dependent elevation”. Besides, in experiment [13], the “total rat IGF-1 levels” value was “dose dependent elevation”.

Source of the values: patent US11299538B2, “Anti-IGF antibodies” (Boehringer Ingelheim International GmbH, priority 2008, dated 2022).
